Structures can show the parent of a compound that is named as a salt. Among all 1,300 compounds or so, about 40 (3%) showed activity. The list shows a part of the results.

The values below come from the supplement of paper PMC12297408.

This test has as its system Plasmodium falciparum NF54/iGP1_RE9H ulg8 stage V gametocytes. Briefly: gametocyte viability (luciferase signal relative to DMSO control) (% of DMSO control); higher = less gametocytocidal activity, active = 50 or less. The settings on record: exposure time: 72 h. The method, boiled down:
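Stage V gametocytes of the NF54/iGP1_RE9Hulg8 line (day 12; ~2.5% gametocytemia, 3% hematocrit), in medium containing 0.5% Albumax II, were dispensed into 96-well plates with compounds spotted in nanolitre volumes from 10 mM DMSO stocks, for final concentrations of 10 µM or 1 µM in a single well each. After 72 h at 37 °C, 90 µl from each well was combined with 10 µl D-luciferin (30 mg/ml), and luminescence was measured on an IVIS Lumina II. Viability was expressed against the mean of the DMSO vehicle wells on the same plate.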

Regarding `CCOC(=O)[C@H](CCc1ccccc1)N[C@@H](C)C(=O)N1CCC[C@H]1C(=O)O` [Enalapril maleate], the gametocyte viability is, setting by setting: (concentration: 1 µM) inactive: 81.9; (concentration: 10 µM) inactive: 86.7.

In the case of `CN(C)CCCO[C@@H]1[C@H]2OC(C)(C)O[C@H]2O[C@@H]1[C@H](O)CO` [Amiprilose hydrochloride], the gametocyte viability is, setting by setting: (concentration: 1 µM) inactive: 97.3; (concentration: 10 µM) inactive: 92.5.

In the case of `C[C@]12CC[C@@H]3c4ccc(O)cc4CC[C@H]3[C@@H]1C[C@@H](O)[C@@H]2O` [Estriol], the gametocyte viability reads like this: (concentration: 1 µM) inactive: 94.6; (concentration: 10 µM) inactive: 92.2.

`CC[N+](CC)(CC)CCC(O)(c1ccccc1)C1CCCCC1` (stereo unspecified) [Tridihexethyl chloride]: the gametocyte viability reads like this: (concentration: 1 µM) inactive: 95.7; (concentration: 10 µM) inactive: 100.

As to `CCc1cccc2c3c([nH]c12)C(CC)(CC(=O)O)OCC3` (stereo unspecified) [Etodolac], the gametocyte viability was inactive: 94.3 (concentration: 1 µM) and inactive: 95.8 (concentration: 10 µM).

With `Cc1noc(NS(=O)(=O)c2ccc(N)cc2)c1C` [Sulfisoxazole], the gametocyte viability is inactive: 92.3 (concentration: 1 µM) and inactive: 94.4 (concentration: 10 µM).

Turning to `CC(Oc1c(Cl)cccc1Cl)C1=NCCN1` (stereo unspecified) [Lofexidine], the gametocyte viability runs as follows: (concentration: 1 µM) inactive: 92.5; (concentration: 10 µM) inactive: 90.5.

Consider `CC1=C(CC(=O)O)c2cc(F)ccc2/C1=C\c1ccc([S+](C)[O-])cc1` (stereo unspecified) [Sulindac], for which the gametocyte viability is, setting by setting: (concentration: 1 µM) inactive: 88.6; (concentration: 10 µM) inactive: 82.7.

On to `Cc1ccccc1N1C(=O)c2cc(S(N)(=O)=O)c(Cl)cc2NC1C` (stereo unspecified) [Metolazone], for which the gametocyte viability reads like this: (concentration: 1 µM) inactive: 80.8; (concentration: 10 µM) inactive: 75.5.

As to `Cc1cc(-n2c(=O)[nH]c(=O)n(C)c2=O)ccc1Oc1ccc(SC(F)(F)F)cc1` [Toltrazuril], the gametocyte viability (concentration: 1 µM) is inactive: 86.4 and the gametocyte viability (concentration: 10 µM) was inactive: 84.2.

For `C=CC1=C(C(=O)O)N2C(=O)[C@@H](NC(=O)/C(=N\OCC(=O)O)c3csc(N)n3)[C@H]2SC1` [Cefixime], the gametocyte viability runs as follows: (concentration: 1 µM) inactive: 82.4; (concentration: 10 µM) inactive: 87.1.

As for `OCCOCCN1CCN(C(c2ccccc2)c2ccc(Cl)cc2)CC1` (stereo unspecified) [Hydroxyzine dihydrochloride], the gametocyte viability (concentration: 1 µM) is inactive: 88 and the gametocyte viability (concentration: 10 µM) is inactive: 86.4.

Consider `CC(=O)Nc1ccc(O)cc1` [Acetaminophen], for which the gametocyte viability was inactive: 85.7 (concentration: 1 µM) and inactive: 83.1 (concentration: 10 µM).

As to `COc1ccc2[nH]c([S+]([O-])Cc3ncc(C)c(OC)c3C)nc2c1` (stereo unspecified) [Omeprazole], the gametocyte viability (concentration: 1 µM) was inactive: 82.9 and the gametocyte viability (concentration: 10 µM) was inactive: 83.9.

Turning to `OC(CCN1CCCCC1)(c1ccccc1)C1CCCCC1` (stereo unspecified) [Trihexyphenidyl-D,L Hydrochloride], the gametocyte viability is inactive: 90.7 (concentration: 1 µM) and inactive: 94.9 (concentration: 10 µM).

With `N=C(N)N/N=C/c1c(Cl)cccc1Cl` [Guanabenz acetate], the gametocyte viability is inactive: 95.7 (concentration: 1 µM) and inactive: 85 (concentration: 10 µM).

With `Brc1c(NC2=NCCN2)ccc2nccnc12` [Brimonidine L-Tartrate], the gametocyte viability is, setting by setting: (concentration: 1 µM) inactive: 80.6; (concentration: 10 µM) inactive: 84.6.

With `CN(C)CCOC(=O)COc1ccc(Cl)cc1` [Meclofenoxate hydrochloride], the gametocyte viability by setting is: (concentration: 1 µM) inactive: 82.6; (concentration: 10 µM) inactive: 88.4.

As for `COc1ccc(C[C@@H]2c3cc(OC)c(OC)cc3CC[N@+]2(C)CCC(=O)OCCCCCOC(=O)CC[N@@+]2(C)CCc3cc(OC)c(OC)cc3[C@H]2Cc2ccc(OC)c(OC)c2)cc1OC` [Cisatracurium besylate], the gametocyte viability (concentration: 1 µM) was inactive: 96 and the gametocyte viability (concentration: 10 µM) is inactive: 92.6.

As for `Nc1cc(-c2ccncc2)c[nH]c1=O` [Amrinone], the gametocyte viability runs as follows: (concentration: 1 µM) inactive: 78.7; (concentration: 10 µM) inactive: 83.9.

On to `CC(N)C12CC3CC(CC(C3)C1)C2` (stereo unspecified) [Rimantadine Hydrochloride], for which the gametocyte viability (concentration: 1 µM) is inactive: 87.2 and the gametocyte viability (concentration: 10 µM) is inactive: 81.8.

For the molecule `CN(CCOc1ccc(CC2SC(=O)NC2=O)cc1)c1ccccn1` (stereo unspecified) [Rosiglitazone Hydrochloride], the gametocyte viability is inactive: 90.8 (concentration: 1 µM) and inactive: 90.1 (concentration: 10 µM).

On to `CCC(=O)OCC(=O)[C@@]1(OC(=O)CC)[C@H](C)C[C@H]2[C@H]3[C@H]([C@@H](O)C[C@@]21C)[C@@]1(C)C=CC(=O)C=C1C[C@H]3Cl` [Alclometasone dipropionate], for which the gametocyte viability was inactive: 83.6 (concentration: 1 µM) and inactive: 78.3 (concentration: 10 µM).

On to `O=C1c2ccccc2S(=O)(=O)N1CCCCN1CCN(c2ncccn2)CC1` [Ipsapirone], for which the gametocyte viability is inactive: 95.5 (concentration: 1 µM) and inactive: 97 (concentration: 10 µM).

Take `Cn1c([N+](=O)[O-])cnc1COC(N)=O` [Ronidazole]: the gametocyte viability (concentration: 1 µM) was inactive: 89 and the gametocyte viability (concentration: 10 µM) is inactive: 86.

On to `CC(Oc1ccccc1)C(=O)N[C@@H]1C(=O)N2[C@@H]1SC(C)(C)[C@@H]2C(=O)O` (stereo partly specified) [Phenethicillin potassium salt], for which the gametocyte viability reads like this: (concentration: 1 µM) inactive: 91.7; (concentration: 10 µM) inactive: 90.9.

Take `N[C@@H](C(=O)N[C@@H]1C(=O)N2C(C(=O)O)=C(Cl)CS[C@H]12)c1ccccc1` [Cefaclor hydrate]: the gametocyte viability reads like this: (concentration: 1 µM) inactive: 83.7; (concentration: 10 µM) inactive: 80.5.

Consider `COc1ccc(C(=O)NCc2ccc(OCCN(C)C)cc2)cc1OC` [Itopride], for which the gametocyte viability by setting is: (concentration: 1 µM) inactive: 92.2; (concentration: 10 µM) inactive: 86.8.

In the case of `C[C@@H]1NC(=O)NC1=O` [Methylhydantoin-5-(L)], the gametocyte viability is inactive: 98.3 (concentration: 1 µM) and inactive: 99.7 (concentration: 10 µM).

Take `CN1CCN(C2=Nc3cc(Cl)ccc3Nc3ccccc32)CC1` [Clozapine]: the gametocyte viability was inactive: 79.8 (concentration: 1 µM) and inactive: 79 (concentration: 10 µM).

As for `Cc1cc(=O)n(-c2ccccc2)n1C` [Antipyrine], the gametocyte viability is inactive: 101 (concentration: 1 µM) and inactive: 95.5 (concentration: 10 µM).

`Clc1ccc(COC(Cn2ccnc2)c2ccc(Cl)cc2Cl)c(Cl)c1` (stereo unspecified) [Miconazole]: the gametocyte viability was inactive: 88.3 (concentration: 1 µM) and inactive: 87.8 (concentration: 10 µM).

As to `NC12CC3CC(CC(C3)C1)C2` [Adamantamine fumarate], the gametocyte viability is, setting by setting: (concentration: 1 µM) inactive: 85.3; (concentration: 10 µM) inactive: 82.4.

`Cc1ccc(-c2ncc(Cl)cc2-c2ccc(S(C)(=O)=O)cc2)cn1` [Etoricoxib]: the gametocyte viability by setting is: (concentration: 1 µM) inactive: 100; (concentration: 10 µM) inactive: 87.6.

As to `CC1CCc2c(N3CCC(O)CC3)c(F)cc3c(=O)c(C(=O)O)cn1c23` (stereo unspecified) [Nadifloxacin], the gametocyte viability (concentration: 1 µM) is inactive: 85.2 and the gametocyte viability (concentration: 10 µM) was inactive: 81.3.

As for `CC(=O)N(O)CCCCCNC(=O)CCC(=O)N(O)CCCCCNC(=O)CCC(=O)N(O)CCCCCN` [Deferoxamine mesylate], the gametocyte viability (concentration: 1 µM) was inactive: 90.6 and the gametocyte viability (concentration: 10 µM) was inactive: 82.7.

In the case of `CCN[C@H]1C[C@H](C)S(=O)(=O)c2sc(S(N)(=O)=O)cc21` [Dorzolamide hydrochloride], the gametocyte viability by setting is: (concentration: 1 µM) inactive: 80.2; (concentration: 10 µM) inactive: 87.2.

Regarding `CC(C)/N=c1\cc2n(-c3ccc(Cl)cc3)c3ccccc3nc-2cc1Nc1ccc(Cl)cc1` [Clofazimine], the gametocyte viability (concentration: 1 µM) is inactive: 89.3 and the gametocyte viability (concentration: 10 µM) was inactive: 97.6.
